The record followed here is the supplement of paper PMC6609913.

For the test, the system named is V-C8 + BRCA2 (BRCA2-proficient hamster cells). Put plainly: normalised cell viability (fraction of plate median); higher = more viable cells (less toxic). The settings on record: 5 µM. Summed up:
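In two screens, library drugs at 5 μM were given for 3 days (screen 1) or 6 days (screen 2) to hamster V-C8 cells without BRCA2 and V-C8 cells with BRCA2 restored, seeded 24 h earlier in 96-well plates. A resazurin assay gave the cell viability readout, expressed as modified robust per cent of sample against the plate median, with triplicate wells averaged.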

The structures appear in SMILES notation. Counter-ions that a name gives are not always drawn. ± gives the standard deviation of the averaged measurements. In all, about 1,300 compounds were measured (“normalised cell viability”: median about 1, lowest 2% from about 0.15 on). The list shows a part of the results.

Regarding `CN(CCOc1ccc(CC2SC(=O)NC2=O)cc1)c1ccccn1` (stereo not drawn) [Rosiglitazone Hydrochloride], the normalised cell viability came to 1.04 ± 0.086 (treatment time: 3 days) and 1.05 ± 0.088 (treatment time: 6 days).

In the case of `CCCc1nc(C(C)(C)O)c(C(=O)O)n1Cc1ccc(-c2ccccc2-c2nnn[nH]2)cc1` [Olmesartan], the normalised cell viability (treatment time: 3 days) stood at 1.03 ± 0.047 and the normalised cell viability (treatment time: 6 days) is 0.923 ± 0.087.

Turning to `N=C(N)N/N=C/c1c(Cl)cccc1Cl` [Guanabenz acetate], the normalised cell viability is, setting by setting: (treatment time: 3 days) 1.1 ± 0.022; (treatment time: 6 days) 1.01 ± 0.082.

In the case of `OC(CCN1CCCCC1)(c1ccccc1)C1CCCCC1` (stereo not drawn) [Trihexyphenidyl-D,L Hydrochloride], the normalised cell viability by setting is: (treatment time: 3 days) 1.24 ± 0.19; (treatment time: 6 days) 1.03 ± 0.056.

Take `CN(C)CCOC(=O)COc1ccc(Cl)cc1` [Meclofenoxate hydrochloride]: the normalised cell viability came to 1.02 ± 0.029 (treatment time: 3 days) and 0.985 ± 0.046 (treatment time: 6 days).

For `CC(Oc1ccccc1)C(=O)N[C@@H]1C(=O)N2[C@@H]1SC(C)(C)[C@@H]2C(=O)O` (stereo partly drawn) [Phenethicillin potassium salt], the normalised cell viability is 0.942 ± 0.0098 (treatment time: 3 days) and 0.975 ± 0.085 (treatment time: 6 days).

With `COc1ccc(C(=O)NCc2ccc(OCCN(C)C)cc2)cc1OC` [Itopride], the normalised cell viability came to 0.924 ± 0.1 (treatment time: 3 days) and 0.984 ± 0.053 (treatment time: 6 days).

For `N[C@@H](C(=O)N[C@@H]1C(=O)N2C(C(=O)O)=C(Cl)CS[C@H]12)c1ccccc1` [Cefaclor hydrate], the normalised cell viability (treatment time: 3 days) was 0.9927 ± 0.0084 and the normalised cell viability (treatment time: 6 days) was determined as 1.02 ± 0.08.

As for `O=C1c2ccccc2S(=O)(=O)N1CCCCN1CCN(c2ncccn2)CC1` [Ipsapirone], the normalised cell viability (treatment time: 3 days) came out at 1 ± 0.032 and the normalised cell viability (treatment time: 6 days) was 1.14 ± 0.077.

For the molecule `Cn1c([N+](=O)[O-])cnc1COC(N)=O` [Ronidazole], the normalised cell viability was 0.924 ± 0.017 (treatment time: 3 days) and 0.91 ± 0.062 (treatment time: 6 days).

For the molecule `CN(C)[C@@H]1C(O)=C(C(N)=O)C(=O)[C@@]2(O)C(O)=C3C(=O)c4c(O)ccc(Cl)c4[C@@H](O)[C@H]3C[C@@H]12` [Demeclocycline hydrochloride], the normalised cell viability is, setting by setting: (treatment time: 3 days) 0.997 ± 0.0086; (treatment time: 6 days) 1.15 ± 0.28.

In the case of `Clc1ccc(COC(Cn2ccnc2)c2ccc(Cl)cc2Cl)c(Cl)c1` (stereo not drawn) [Miconazole], the normalised cell viability was 0.899 ± 0.034 (treatment time: 3 days) and 0.753 ± 0.0086 (treatment time: 6 days).

As for `Cc1cc(=O)n(-c2ccccc2)n1C` [Antipyrine], the normalised cell viability (treatment time: 3 days) is 0.997 ± 0.038 and the normalised cell viability (treatment time: 6 days) came to 1.02 ± 0.046.

For `NC12CC3CC(CC(C3)C1)C2` [Adamantamine fumarate], the normalised cell viability came to 0.885 ± 0.035 (treatment time: 3 days) and 0.95 ± 0.053 (treatment time: 6 days).

Regarding `Cc1ccc(-c2ncc(Cl)cc2-c2ccc(S(C)(=O)=O)cc2)cn1` [Etoricoxib], the normalised cell viability runs as follows: (treatment time: 3 days) 1.04 ± 0.11; (treatment time: 6 days) 0.994 ± 0.091.

Turning to `CC1CCc2c(N3CCC(O)CC3)c(F)cc3c(=O)c(C(=O)O)cn1c23` (stereo not drawn) [Nadifloxacin], the normalised cell viability by setting is: (treatment time: 3 days) 0.943 ± 0.06; (treatment time: 6 days) 0.916 ± 0.066.

As to `C[C@@H]1NC(=O)NC1=O` [Methylhydantoin-5-(L)], the normalised cell viability was found to be 0.988 ± 0.053 (treatment time: 3 days) and 1.07 ± 0.046 (treatment time: 6 days).

As for `CN1CCN(C2=Nc3cc(Cl)ccc3Nc3ccccc32)CC1` [Clozapine], the normalised cell viability is 1.01 ± 0.039 (treatment time: 3 days) and 1.03 ± 0.047 (treatment time: 6 days).

For `CCC(NC(C)C)C(O)c1ccc(O)c(O)c1` (stereo not drawn) [Isoetharine mesylate salt], the normalised cell viability (treatment time: 3 days) turned out to be 1.07 ± 0.041 and the normalised cell viability (treatment time: 6 days) is 1.01 ± 0.063.

On to `CCC(Cc1c(I)cc(I)c(N)c1I)C(=O)O` (stereo not drawn) [Iopanoic acid], for which the normalised cell viability runs as follows: (treatment time: 3 days) 0.979 ± 0.038; (treatment time: 6 days) 1.09 ± 0.057.

Consider `CN1CCc2cccc3c2[C@H]1Cc1ccc(O)c(O)c1-3` [R(-) Apomorphine hydrochloride hemihydrate], for which the normalised cell viability by setting is: (treatment time: 3 days) 0.813 ± 0.023; (treatment time: 6 days) 0.867 ± 0.025.

For `CO[C@@]1(NC(=O)CSCC#N)C(=O)N2C(C(=O)O)=C(CSc3nnnn3C)CS[C@@H]21` [Cefmetazole sodium salt], the normalised cell viability by setting is: (treatment time: 3 days) 0.959 ± 0.029; (treatment time: 6 days) 0.98 ± 0.072.

Turning to `C[C@@H]1[C@H](O)[C@@H](C)/C=C/C=C/C=C/C=C/C=C/C=C/C=C/[C@H](O[C@@H]2O[C@H](C)[C@@H](O)[C@H](N)[C@@H]2O)C[C@@H]2O[C@](O)(C[C@@H](O)C[C@@H](O)[C@H](O)CC[C@@H](O)C[C@@H](O)CC(=O)O[C@H]1C)C[C@H](O)[C@H]2C(=O)O` [Amphotericin B], the normalised cell viability was found to be 0.902 ± 0.053 (treatment time: 3 days) and 0.966 ± 0.062 (treatment time: 6 days).

Consider `CCOC(=O)C(C)(C)Oc1ccc(Cl)cc1` [Clofibrate], for which the normalised cell viability turned out to be 1.06 ± 0.016 (treatment time: 3 days) and 1.03 ± 0.036 (treatment time: 6 days).

In the case of `CC(C)NC[C@H](O)COc1ccc(CC(N)=O)cc1` [(S)-(-)-Atenolol], the normalised cell viability was 1.03 ± 0.026 (treatment time: 3 days) and 0.983 ± 0.051 (treatment time: 6 days).

For `CC(=O)N(O)CCCCCNC(=O)CCC(=O)N(O)CCCCCNC(=O)CCC(=O)N(O)CCCCCN` [Deferoxamine mesylate], the normalised cell viability runs as follows: (treatment time: 3 days) 0.335 ± 0.014; (treatment time: 6 days) 0.2 ± 0.029.

For the molecule `O=C1Cc2cc(CCN3CCN(c4nsc5ccccc45)CC3)c(Cl)cc2N1` [Ziprasidone  Hydrochloride], the normalised cell viability was found to be 0.206 ± 0.016 (treatment time: 3 days) and 0.23 ± 0.013 (treatment time: 6 days).

As to `CC(C)/N=c1\cc2n(-c3ccc(Cl)cc3)c3ccccc3nc-2cc1Nc1ccc(Cl)cc1` [Clofazimine], the normalised cell viability is 0.274 ± 0.021 (treatment time: 3 days) and 0.346 ± 0.037 (treatment time: 6 days).

For the molecule `CCN[C@H]1C[C@H](C)S(=O)(=O)c2sc(S(N)(=O)=O)cc21` [Dorzolamide hydrochloride], the normalised cell viability is 0.941 ± 0.024 (treatment time: 3 days) and 0.922 ± 0.075 (treatment time: 6 days).

`O=c1cc(-c2ccc(O)c(O)c2)oc2cc(O)cc(O)c12` [Luteolin]: the normalised cell viability (treatment time: 3 days) is 0.936 ± 0.045 and the normalised cell viability (treatment time: 6 days) was found to be 1.07 ± 0.059.

For `CC(C)(C(=O)c1cccnc1)c1cccnc1` [Metyrapone], the normalised cell viability runs as follows: (treatment time: 3 days) 1.005 ± 0.0075; (treatment time: 6 days) 1.02 ± 0.081.

Regarding `Cn1ccnc1S` [Methimazole], the normalised cell viability was determined as 0.965 ± 0.019 (treatment time: 3 days) and 1.02 ± 0.037 (treatment time: 6 days).

As for `Nc1c(Br)cc(Br)cc1CN[C@H]1CC[C@H](O)CC1` [Ambroxol hydrochloride], the normalised cell viability by setting is: (treatment time: 3 days) 1.17 ± 0.034; (treatment time: 6 days) 1.11 ± 0.087.

In the case of `CC(C)(Sc1cc(C(C)(C)C)c(O)c(C(C)(C)C)c1)Sc1cc(C(C)(C)C)c(O)c(C(C)(C)C)c1` [Probucol], the normalised cell viability was 0.922 ± 0.059 (treatment time: 3 days) and 1.06 ± 0.013 (treatment time: 6 days).
